Source: patent US20230295293A1, “BINDING MOLECULES AGAINST FRa” (AstraZeneca AB, priority 2022, published 2023)

Columns and labels:
[1] = Hydrophobic interaction chromatography (HIC) HPLC; format: physicochemical; conditions: higher retention = more hydrophobic
[2] = Pharmacokinetics of anti-FRα antibodies in wild-type SCID mice; format: in vivo, mouse; conditions: 5 mg/kg iv bolus, total antibody
Procedure: Pharmacokinetic parameters were determined using Phoenix 64 software (Certara).
Plasma antibody concentrations were determined by the universal ELISA IgG assay.

[3] = molecular target: T1, human FRα (Homo sapiens, UniProt P15328); experiment: HTRF epitope competition assay with Comparator 1 IgG; format: binding; conditions: n > 2; human IgG1 format
T1 construct: CD33 leader (signal peptide) (N, cleaved yes); made in house; host or cells: in-house suspension-adapted CHO cell line
Procedure: (§1) HTRF epitope competition assays were set up using a titration of test IgG, 1 nM streptavidin cryptate, biotinylated human FRα and DyLight 650 labelled IgG to assay volume of 10 μl. For the Comparator Antibody 1 and Comparator Antibody 2 assays, 0.5 nM biotinylated human FRα and 0.5 nM DyLight 650 labelled Comparator Antibody 1 or Comparator Antibody 2 was used. […] Assay plates were incubated for 3-4 h at room temperature prior to fluorescence measurement.

[4] = Accelerated thermal stability assay, HP-SEC; format: physicochemical; conditions: 2 weeks, 1 mg/ml in PBS
Procedure: IgG were diluted to 1 mg/ml in PBS then incubated at 4° C. or 45° C. for 2 weeks then filtered using filter spin columns (Millipore, UFC30HVNB). High performance-size exclusion chromatography (HP-SEC) was performed by loading 70 μl of IgG onto a TSKgel G3000SWXL; 5 μm, 7.8 mm×300 mm column using a flow rate of 1 ml/min and 0.1 M sodium phosphate dibasic anhydrous and 0.1 M sodium sulphate, pH 6.8 as the isocratic running buffer. Larger molecules are excluded from the pores of the size exclusion column to a greater extent than smaller molecules, and therefore elute earlier. Peaks eluting earlier than the monomer peak are recorded as aggregates. Peaks eluting after the monomer peak (excluding the buffer-related peak) are recorded as fragments. In parallel, antibodies were profiled in the HTRF epitope competition assay for changes in potency.

[5] = molecular target: T1, human FRα; experiment: HTRF epitope competition assay with Comparator 2 IgG; format: binding; conditions: n > 2; human IgG1 format
Procedure: as §1

[6] = molecular target: T1, human FRα; experiment: HTRF epitope competition assay with Comparator 3 IgG; format: binding; conditions: n > 2; human IgG1 format
Procedure: as §1

[7] = tested on: cyno FRα; experiment: Biacore T200 surface plasmon resonance affinity; format: binding, cynomolgus monkey; conditions: SPR 25° C.
Procedure: (§2) Protein A was covalently immobilised to a CM5 chip surface using standard amine coupling techniques at a concentration of 50 μg/ml in 10 mM Sodium acetate, pH 4.0. The antibody was captured onto the Protein A surface in HBS-EP+ buffer, pH 7.4 at 10 μl/min to enable FRα ECD binding. The FRα ECD was serially diluted (0.4 nM-100 nM human FRα ECD; 0.8 nM-200 nM cyno FRα ECD; 30 nM-4000 nM mouse FRα ECD and rat FRα ECD) in HBS-EP+ buffer, pH 7.4 and flowed over the chip at 50 μl/min, with 2 minutes association and 8 minutes dissociation. The chip surface was fully regenerated with pulses of 3 M MgCl2 to remove captured antibody together with any bound FRα ECD. Multiple buffer-only injections were made under the same conditions to allow for double reference subtraction of the final sensorgram sets, which were analysed using Biacore T200 Evaluation Software to derive equilibrium dissociation constants.

[8] = molecular target: T2, mouse FRα (Mus musculus, UniProt P35846); experiment: HTRF antigen (IgG) binding assay; conditions: hybridoma supernatant, 1 nM biotinylated antigen; binder >30% delta F
T2 construct: CD33 signal peptide (N, cleaved yes); made in house
Procedure: (§3) The negative control ratio was derived from nonspecific binding (NSB) control wells. Curves were analysed using GraphPad Prism software using a four-parameter logistic curve-fitting equation.

[9] = molecular target: T3, human FRβ (Homo sapiens, UniProt P14207); experiment: HTRF antigen (IgG) binding assay; conditions: hybridoma supernatant, 1 nM biotinylated antigen; binder >30% delta F
T3 construct: CD33 signal peptide (N, cleaved yes); made in house
Procedure: as §3

[10] = molecular target: T1, human FRα; experiment: HTRF antigen (IgG) binding assay; conditions: hybridoma supernatant, 1 nM biotinylated antigen; binder >30% delta F
Procedure: as §3

[11] = molecular target: T4, human FRγ (Homo sapiens, UniProt P41439); experiment: HTRF antigen (IgG) binding assay; conditions: hybridoma supernatant, 1 nM biotinylated antigen; binder >30% delta F
T4 construct: CD33 signal peptide (N, cleaved yes); made in house
Procedure: as §3

[12] = molecular target: T1, human FRα; experiment: Biacore T200 surface plasmon resonance affinity; format: binding; conditions: SPR 25° C.
Procedure: as §2

[13] = tested on: cyno FRα; experiment: HTRF antigen (IgG) binding assay; set-up: species or system cynomolgus monkey; conditions: hybridoma supernatant, 1 nM biotinylated antigen; binder >30% delta F
Procedure: as §3

T1 sequence (P15328 with tags, fused parts or gaps): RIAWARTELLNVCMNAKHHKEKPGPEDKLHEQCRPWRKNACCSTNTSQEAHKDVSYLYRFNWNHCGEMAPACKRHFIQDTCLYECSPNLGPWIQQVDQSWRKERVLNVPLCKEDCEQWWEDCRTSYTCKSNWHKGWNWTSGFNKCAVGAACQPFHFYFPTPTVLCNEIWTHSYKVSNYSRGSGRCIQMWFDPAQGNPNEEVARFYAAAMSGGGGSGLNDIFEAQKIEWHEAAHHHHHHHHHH
T3 sequence (P14207 with tags, fused parts or gaps): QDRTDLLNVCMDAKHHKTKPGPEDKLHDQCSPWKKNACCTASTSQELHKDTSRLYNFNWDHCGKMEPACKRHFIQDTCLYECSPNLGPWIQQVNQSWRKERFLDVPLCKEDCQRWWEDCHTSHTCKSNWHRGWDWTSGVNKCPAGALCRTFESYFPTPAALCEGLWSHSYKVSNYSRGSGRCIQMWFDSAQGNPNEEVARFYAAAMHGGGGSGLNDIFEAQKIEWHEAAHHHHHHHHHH
T2 sequence (P35846 with tags, fused parts or gaps): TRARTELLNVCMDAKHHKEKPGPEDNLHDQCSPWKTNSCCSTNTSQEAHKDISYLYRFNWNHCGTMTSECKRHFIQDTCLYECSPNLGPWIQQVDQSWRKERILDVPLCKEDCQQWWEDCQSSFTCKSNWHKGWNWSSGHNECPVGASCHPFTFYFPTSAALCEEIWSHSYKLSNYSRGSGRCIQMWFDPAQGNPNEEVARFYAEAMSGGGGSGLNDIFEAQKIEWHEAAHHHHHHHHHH
T4 sequence (P41439 with tags, fused parts or gaps): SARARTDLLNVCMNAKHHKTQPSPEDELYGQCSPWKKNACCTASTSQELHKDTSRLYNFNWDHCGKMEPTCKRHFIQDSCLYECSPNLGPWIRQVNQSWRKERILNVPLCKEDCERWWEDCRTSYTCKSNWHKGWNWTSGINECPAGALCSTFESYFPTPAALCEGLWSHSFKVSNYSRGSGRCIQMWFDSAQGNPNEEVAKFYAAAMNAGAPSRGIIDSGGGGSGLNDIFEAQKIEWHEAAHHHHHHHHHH

HTRF epitope competition assay, geomean IC50 (M), Comparator 1 IgG [3]: inhibited
HTRF epitope competition assay, geomean IC50 (M), Comparator 2 IgG [5]: inhibited
HTRF epitope competition assay, geomean IC50 (M), Comparator 3 IgG [6]: inhibited
kd [7]: 0.00187 s⁻¹
HTRF IgG binding assay (% Delta F) Mouse FRα [8]: −3.41 % Delta F
HTRF IgG binding assay (% Delta F) Human FRβ [9]: −1.07 % Delta F
HTRF IgG binding assay (% Delta F) Human FRα [10]: 79.81 % Delta F
HTRF IgG binding assay (% Delta F) Human FRγ [11]: −1.77 % Delta F
ka [12]: 293000 M⁻¹ s⁻¹
kd [12]: 0.000762 s⁻¹
HTRF IgG binding assay (% Delta F) Cyno FRα [13]: 67.23 % Delta F
B1: AB1370117: anti-FRα fully human IgG1 antibody; VH SEQ ID NO: 47, VL SEQ ID NO: 48 (antibody, V domains shown)
VH: QVQLQQSGPGLVKPSQTLSLTCAISGDSVSSDSATWNWIRQSPSRGLEWLGRTYYRSKWYSDYAVSVKSRITINPDTSKNQFSLQLNSVTPEDTAVYFCARGGAPFDYWGQGTLVTVSS
VL: [letters of about 100 residues not shown]MYTFGQGTKLEIK
Retention time by HIC-HPLC [1]: 2.27 min
AUClast [2]: 762 µg·days/mL
CL [2]: 5.2 mL/day/kg
Cmax [2]: 110.9 µg/mL
Vss [2]: 0.071 L/kg
t1/2 [2]: 240 h
HP SEC % monomer ([4]; 4° C.): 99.4%
HP SEC % monomer ([4]; 45° C.): 97.0%
ka [7]: 364000 M⁻¹ s⁻¹
